Laboratory results: the supplement of paper PMC4967469
By IC50 is meant the dose at which the fit gives 50% viability; a limit (>, <) means that the fit lies beyond the doses tested. AUC, from the same fit, is the share of area under the viability curve across the 256-fold dose range; the more sensitive the line, the further below 1. Where the top dose is marked as inferred, it was derived from the fitted curves, not read from the paper.

Compound: CCc1nc(-c2cccc(C)c2)c(-c2ccnc(NC(=O)c3ccccc3)c2)s1 [TAK-715]
Test: Viability of human cancer cell lines after 72 h of drug (GDSC screen)
Details: top dose inferred
Description: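 Human cancer cell lines in 384-well plates, medium with 10% serum, drug for 72 h over a 256-fold dose range (nine 2-fold or five 4-fold steps up to the top dose). Adherent lines were fixed and stained with the nucleic acid dye Syto60, suspension lines read with resazurin; signal relative to control wells, capped at 0 and 100%. One two-parameter sigmoid per drug and line, fitted in a mixed model over all curves with the slope shared within a line.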

| Cell Line | AUC | IC50 [µM] |
| --- | --- | --- |
| Hs-578-T (breast, adherent, top dose 20 µM) | 0.986 | > 20 |
| HuCCT1 (biliary tract, adherent, top dose 20 µM) | 0.957 | > 20 |
| HuH-7 (liver, adherent, top dose 20 µM) | 0.972 | > 20 |
| HuO9 (osteosarcoma, adherent, top dose 20 µM) | 0.906 | > 20 |
| HuO-3N1 (osteosarcoma, adherent, top dose 20 µM) | 0.982 | > 20 |
| HuP-T3 (pancreas, adherent, top dose 20 µM) | 0.95 | > 20 |
| HuP-T4 (pancreas, adherent, top dose 20 µM) | 0.91 | > 20 |
| IA-LM (large cell lung carcinoma, adherent, top dose 20 µM) | 0.966 | > 20 |
| IGR-1 (melanoma, adherent, top dose 20 µM) | 0.936 | > 20 |
| IGR-37 (melanoma, adherent, top dose 20 µM) | 0.989 | > 20 |
| IHH-4 (thyroid, semi-adherent, top dose 20 µM) | 0.925 | > 20 |
| IM-95 (stomach, adherent, top dose 20 µM) | 0.886 | > 20 |
| IMR-5 (neuroblastoma, adherent, top dose 20 µM) | 0.871 | 13.9 |
| IPC-298 (melanoma, adherent, top dose 20 µM) | 0.971 | > 20 |
| IST-MEL1 (melanoma, adherent, top dose 20 µM) | 0.967 | > 20 |
| IST-MES1 (mesothelioma, adherent, top dose 20 µM) | 0.978 | > 20 |
| IST-SL1 (small cell lung carcinoma, semi-adherent, top dose 20 µM) | 0.948 | > 20 |
| IST-SL2 (small cell lung carcinoma, suspension, top dose 20 µM) | 0.864 | 17.2 |
| J82 (bladder, adherent, top dose 20 µM) | 0.974 | > 20 |
| JAR (urogenital system, adherent, top dose 20 µM) | 0.887 | > 20 |
| JEG-3 (urogenital system, adherent, top dose 20 µM) | 0.974 | > 20 |

| Cell Line | AUC | IC50 [µM] |
| --- | --- | --- |
| JHH-1 (liver, adherent, top dose 20 µM) | 0.943 | > 20 |
| JHH-2 (liver, adherent, top dose 20 µM) | 0.934 | > 20 |
| JHH-4 (liver, adherent, top dose 20 µM) | 0.895 | > 20 |
| JHH-6 (liver, adherent, top dose 20 µM) | 0.968 | > 20 |
| JHH-7 (liver, adherent, top dose 20 µM) | 0.939 | > 20 |
| JHOS-2 (ovary, adherent, top dose 20 µM) | 0.921 | > 20 |
| JHOS-3 (ovary, adherent, top dose 20 µM) | 0.939 | > 20 |
| JHU-011 (head and neck, adherent, top dose 20 µM) | 0.912 | > 20 |
| JHU-022 (head and neck, adherent, top dose 20 µM) | 0.981 | > 20 |
| JIMT-1 (breast, adherent, top dose 20 µM) | 0.957 | > 20 |
| JJN-3 (haematopoietic neoplasm, suspension, top dose 20 µM) | 0.915 | > 20 |
| JM1 (B-cell lymphoma, suspension, top dose 20 µM) | 0.91 | > 20 |
| JSC-1 (B-cell lymphoma, suspension, top dose 20 µM) | 0.838 | 13.3 |
| JURL-MK1 (chronic myeloid leukaemia, suspension, top dose 20 µM) | 0.933 | > 20 |
| JVM-2 (lymphoid neoplasm, suspension, top dose 20 µM) | 0.942 | > 20 |
| JVM-3 (lymphoid neoplasm, suspension, top dose 20 µM) | 0.947 | > 20 |
| JiyoyeP-2003 (Burkitt lymphoma, suspension, top dose 20 µM) | 0.957 | > 20 |
| K2 (melanoma, adherent, top dose 20 µM) | 0.959 | > 20 |
| K5 (thyroid, adherent, top dose 20 µM) | 0.988 | > 20 |
| KALS-1 (glioma, adherent, top dose 20 µM) | 0.962 | > 20 |
| KARPAS-45 (lymphoblastic leukaemia, suspension, top dose 20 µM) | 0.664 | 3.27 |

| Cell Line | AUC | IC50 [µM] |
| --- | --- | --- |
| KARPAS-299 (anaplastic large cell lymphoma, suspension, top dose 20 µM) | 0.898 | 17.6 |
| KARPAS-422 (B-cell lymphoma, suspension, top dose 20 µM) | 0.953 | > 20 |
| KARPAS-620 (haematopoietic neoplasm, suspension, top dose 20 µM) | 0.832 | 10.3 |
| KASUMI-1 (acute myeloid leukaemia, suspension, top dose 20 µM) | 0.718 | 5.19 |
| KCL-22 (chronic myeloid leukaemia, suspension, top dose 20 µM) | 0.925 | > 20 |
| KE-37 (lymphoblastic leukaemia, suspension, top dose 20 µM) | 0.747 | 5.14 |
| KELLY (neuroblastoma, adherent, top dose 20 µM) | 0.903 | > 20 |
| KG-1 (acute myeloid leukaemia, suspension, top dose 20 µM) | 0.897 | > 20 |
| KGN (ovary, adherent, top dose 20 µM) | 0.98 | > 20 |
| KINGS-1 (glioma, adherent, top dose 20 µM) | 0.975 | > 20 |
| KLE (endometrium, adherent, top dose 20 µM) | 0.84 | > 20 |
| KM12 (large intestine, adherent, top dose 20 µM) | 0.923 | > 20 |
| KM-H2 (Hodgkin lymphoma, suspension, top dose 20 µM) | 0.93 | > 20 |
| KMH-2 (thyroid, adherent, top dose 20 µM) | 0.956 | > 20 |
| KMOE-2 (acute myeloid leukaemia, suspension, top dose 20 µM) | 0.9 | > 20 |
| KMRC-1 (kidney, adherent, top dose 20 µM) | 0.978 | > 20 |
| KMRC-20 (kidney, adherent, top dose 20 µM) | 0.982 | > 20 |
| KMS-11 (myeloma, suspension, top dose 20 µM) | 0.945 | > 20 |
| KMS-12-BM (myeloma, suspension, top dose 20 µM) | 0.892 | 16.3 |
| KNS-42 (glioma, adherent, top dose 20 µM) | 0.981 | > 20 |
| KNS-81-FD (glioma, adherent, top dose 20 µM) | 0.956 | > 20 |

| Cell Line | AUC | IC50 [µM] |
| --- | --- | --- |
| KON (head and neck, adherent, top dose 20 µM) | 0.968 | > 20 |
| KOPN-8 (B-cell leukaemia, suspension, top dose 20 µM) | 0.894 | 18 |
| KP-1N (pancreas, adherent, top dose 10.24 µM) | 0.948 | > 10.2 |
| KP-2 (pancreas, adherent, top dose 20 µM) | 0.959 | > 20 |
| KP-3 (pancreas, adherent, top dose 20 µM) | 0.939 | > 20 |
| KP-4 (pancreas, adherent, top dose 20 µM) | 0.94 | > 20 |
| KP-N-YN (neuroblastoma, adherent, top dose 20 µM) | 0.95 | > 20 |
| KP-N-YS (neuroblastoma, adherent, top dose 20 µM) | 0.881 | > 20 |
| KS-1 (glioma, adherent, top dose 20 µM) | 0.956 | > 20 |
| KU812 (chronic myeloid leukaemia, suspension, top dose 20 µM) | 0.873 | 16.4 |
| KU-19-19 (bladder, adherent, top dose 20 µM) | 0.977 | > 20 |
| KURAMOCHI (ovary, adherent, top dose 20 µM) | 0.983 | > 20 |
| KY821 (leukaemia, suspension, top dose 20 µM) | 0.952 | > 20 |
| KYAE-1 (oesophagus, suspension, top dose 20 µM) | 0.811 | 12 |
| KYM-1 (rhabdomyosarcoma, adherent, top dose 20 µM) | 0.989 | > 20 |
| KYSE-50 (oesophagus, adherent, top dose 20 µM) | 0.986 | > 20 |
| KYSE-70 (oesophagus, adherent, top dose 20 µM) | 0.941 | > 20 |
| KYSE-140 (oesophagus, adherent, top dose 20 µM) | 0.823 | 13.8 |
| KYSE-150 (oesophagus, adherent, top dose 20 µM) | 0.959 | > 20 |
